# According to the supplement of paper PMC11741623:
# The list shows a part of the results. Interaction screen of human proteins with wild-type SARS-CoV-2 proteins by split-DHFR complementation in yeast, 1 µg/mL methotrexate. Value = fitness of the pair (three or more lineages) minus that of the viral protein without a human partner, on a scale set by negative (0) and fused positive (1) controls, mean of up to three cultures; higher = more likely to interact. Active = false discovery rate below 0.05 (one-sided t-test) in at least one culture. Nearly all pairs are not hits, and differences among them are mostly noise (correlation between cultures about 0.3); most hits were seen in one culture only. Human sequences are the Swiss-Prot entries looked up by gene name; the clone may be another isoform. NSP2 values were corrected by the authors for a growth advantage. Listed are human proteins with a hit and a random twelfth of the others.
# B1: ERGIC2, Q96RQ1 (protein)
# chain: MRRLNRKKTLSLVKELDAFPKVPESYVETSASGGTVSLIAFTTMALLTIMEFSVYQDTWMKYEYEVDKDFSSKLRINIDITVAMKCQYVGADVLDLAETMVASADGLVYEPTVFDLSPQQKEWQRMLQLIQSRLQEEHSLQDVIFKSAFKSTSTALPPREDDSSQSPNACRIHGHLYVNKVAGNFHITVGKAIPHPRGHAHLAALVNHESYNFSHRIDHLSFGELVPAIINPLDGTEKIAIDHNQMFQYFITVVPTKLHTYKISADTHQFSVTERERIINHAAGSHGVSGIFMKYDLSSLMVTVTEEHMPFWQFFVRLCGIVGGIFSTTGMLHGIGKFIVEIICCRFRLGSYKPVNSVPFEDGHTDNHLPLLENNTH
# B2: TEX30, Q5JUR7 (protein)
# chain: MSHTEVKLKIPFGNKLLDAVCLVPNKSLTYGIILTHGASGDMNLPHLMSLASHLASHGFFCLRFTCKGLNIVHRIKAYKSVLNYLKTSGEYKLAGVFLGGRSMGSRAAASVMCHIEPDDGDDFVRGLICISYPLHHPKQQHKLRDEDLFRLKEPVLFVSGSADEMCEKNLLEKVAQKMQAPHKIHWIEKANHSMAVKGRSTNDVFKEINTQILFWIQEITEMDKKCH
# B3: SH3RF2, Q8TEC5 (protein)
# chain: MDDLTLLDLLECPVCFEKLDVTAKVLPCQHTFCKPCLQRVFKAHKELRCPECRTPVFSNIEALPANLLLVRLLDGVRSGQSSGRGGSFRRPGTMTLQDGRKSRTNPRRLQASPFRLVPNVRIHMDGVPRAKALCNYRGQNPGDLRFNKGDIILLRRQLDENWYQGEINGISGNFPASSVEVIKQLPQPPPLCRALYNFDLRGKDKSENQDCLTFLKDDIITVISRVDENWAEGKLGDKVGIFPILFVEPNLTARHLLEKNKGRQSSRTKNLSLVSSSSRGNTSTLRRGPGSRRKVPGQFSITTALNTLNRMVHSPSGRHMVEISTPVLISSSNPSVITQPMEKADVPSSCVGQVSTYHPAPVSPGHSTAVVSLPGSQQHLSANMFVALHSYSAHGPDELDLQKGEGVRVLGKCQDGWLRGVSLVTGRVGIFPNNYVIPIFRKTSSFPDSRSPGLYTTWTLSTSSVSSQGSISEGDPRQSRPFKSVFVPTAIVNPVRSTAGPGTLGQGSLRKGRSSMRKNGSLQRPLQSGIPTLVVGSLRRSPTMVLRPQQFQFYQPQGIPSSPSAVVVEMGSKPALTGEPALTCISRGSEAWIHSAASSLIMEDKEIPIKSEPLPKPPASAPPSILVKPENSRNGIEKQVKTVRFQNYSPPPTKHYTSHPTSGKPEQPATLKASQPEAASLGPEMTVLFAHRSGCHSGQQTDLRRKSALGKATTLVSTASGTQTVFPSK
# B4: FABP6, P51161 (protein)
# chain: MAFTGKFEMESEKNYDEFMKLLGISSDVIEKARNFKIVTEVQQDGQDFTWSQHYSGGHTMTNKFTVGKESNIQTMGGKTFKATVQMEGGKLVVNFPNYHQTSEIVGDKLVEVSTIGGVTYERVSKRLA
# Molecular target: SARS-CoV-2 E
# Test: yeast fitness gain over the viral ORF with no human partner (scaled fitness); higher = more likely to interact
# Description: (§1)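 Split mouse DHFR complementation in pooled diploid yeast: human ORFeome clones carry one fragment and viral ORFs the other; barcoded lineages compete in 1 µg/mL methotrexate and fitness is read by barcode sequencing in up to three cultures.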
row,Binder,yeast fitness gain
1,B1,inactive: 0.0266
2,B2,inactive: -0.0242
3,B3,inactive: -0.0311
4,B4,inactive: -0.00506

# Molecular target: SARS-CoV-2 N
# Test: as above
# Description: as §1
row,Binder,yeast fitness gain
1,B1,inactive: -0.0747
2,B2,inactive: 0.201
3,B3,inactive: 0.00414
4,B4,inactive: 0.0023

# Molecular target: SARS-CoV-2 NSP1
# Test: as above
# Description: as §1
row,Binder,yeast fitness gain
1,B1,inactive: -0.0665
2,B2,inactive: 0.0317
3,B4,inactive: -0.0066

# Molecular target: SARS-CoV-2 NSP14
# Test: as above
# Description: as §1
row,Binder,yeast fitness gain
1,B1,inactive: -0.0256
2,B2,inactive: -0.0985
3,B3,inactive: -0.0271
4,B4,inactive: 0.134

# Molecular target: SARS-CoV-2 NSP15
# Test: as above
# Description: as §1
row,Binder,yeast fitness gain
1,B1,inactive: -0.00907
2,B2,inactive: -0.0294
3,B4,inactive: 0.0448

# Molecular target: SARS-CoV-2 NSP16
# Test: as above
# Description: as §1
row,Binder,yeast fitness gain
1,B1,inactive: 0.105
2,B2,inactive: 0.0653
3,B4,inactive: 0.0312

# Molecular target: SARS-CoV-2 NSP5
# Test: as above
# Description: as §1
row,Binder,yeast fitness gain
1,B1,inactive: -0.0469
2,B2,inactive: 0.00067
3,B3,inactive: 0.0304
4,B4,inactive: 0.00767

# Molecular target: SARS-CoV-2 NSP6
# Test: as above
# Description: as §1
row,Binder,yeast fitness gain
1,B1,inactive: 0.0209
2,B2,inactive: 0.0206
3,B4,inactive: 0.0196

# Molecular target: SARS-CoV-2 NSP7
# Test: as above
# Description: as §1
row,Binder,yeast fitness gain
1,B1,inactive: -0.00567
2,B2,inactive: 0.0405
3,B4,inactive: -0.0127

# Molecular target: SARS-CoV-2 NSP8
# Test: as above
# Description: as §1
row,Binder,yeast fitness gain
1,B1,inactive: -0.0211
2,B2,inactive: -0.056
3,B4,inactive: 0.00582

# Molecular target: SARS-CoV-2 ORF10
# Test: as above
# Description: as §1
row,Binder,yeast fitness gain
1,B1,inactive: -0.0601
2,B2,inactive: -0.0425
3,B4,inactive: 0.00799

# Molecular target: SARS-CoV-2 ORF3A
# Test: as above
# Description: as §1
row,Binder,yeast fitness gain
1,B1,inactive: 0.0556
2,B2,inactive: -0.132
3,B3,inactive: -0.0373
4,B4,inactive: -0.0431

# Molecular target: SARS-CoV-2 ORF3B
# Test: as above
# Description: as §1
row,Binder,yeast fitness gain
1,B1,inactive: 0.0161
2,B2,inactive: 0.0358
3,B4,inactive: -0.00982

# Molecular target: SARS-CoV-2 ORF7B
# Test: as above
# Description: as §1
row,Binder,yeast fitness gain
1,B1,inactive: 0.0584
2,B2,inactive: -0.0644
3,B4,inactive: -0.0979

# Molecular target: SARS-CoV-2 ORF9Bwu (the 73-codon ORF)
# Test: as above
# Description: as §1
row,Binder,yeast fitness gain
1,B1,inactive: -0.0161
2,B2,inactive: 0.0476
3,B4,inactive: 0.0516

# Molecular target: SARS-CoV-2 S
# Test: as above
# Description: as §1
row,Binder,yeast fitness gain
1,B1,inactive: 0.0278
2,B2,inactive: -0.0859
3,B4,inactive: 0.0699

# Molecular target: SARS-CoV-2 M
# Test: as above
# Description: as §1
row,Binder,yeast fitness gain
1,B2,inactive: 0.0467
2,B4,inactive: 0.0699

# Molecular target: SARS-CoV-2 NSP10
# Test: as above
# Description: as §1
row,Binder,yeast fitness gain
1,B2,inactive: -0.00713
2,B4,inactive: 0.049

# Molecular target: SARS-CoV-2 NSP12
# Test: as above
# Description: as §1
row,Binder,yeast fitness gain
1,B2,inactive: -0.0412
2,B4,inactive: 0.0342

# Molecular target: SARS-CoV-2 NSP13
# Test: as above
# Description: as §1
row,Binder,yeast fitness gain
1,B2,inactive: -0.0123
2,B4,inactive: 0.0107

# Molecular target: SARS-CoV-2 NSP2
# Test: as above
# Description: as §1
row,Binder,yeast fitness gain
1,B2,inactive: -0.118
2,B4,active: 0.322

# Molecular target: SARS-CoV-2 NSP4
# Test: as above
# Description: as §1
row,Binder,yeast fitness gain
1,B2,inactive: 0.0828
2,B4,inactive: -0.0163

# Molecular target: SARS-CoV-2 NSP9
# Test: as above
# Description: as §1
row,Binder,yeast fitness gain
1,B2,inactive: -0.0323
2,B4,inactive: 0.0463

# Molecular target: SARS-CoV-2 ORF6
# Test: as above
# Description: as §1
row,Binder,yeast fitness gain
1,B2,inactive: -0.0119
2,B4,inactive: -0.00294

# Molecular target: SARS-CoV-2 ORF7A
# Test: as above
# Description: as §1
row,Binder,yeast fitness gain
1,B2,inactive: -0.00959
2,B4,inactive: -0.116

# Molecular target: SARS-CoV-2 ORF8
# Test: as above
# Description: as §1
row,Binder,yeast fitness gain
1,B2,inactive: 0.0513
2,B4,inactive: 0.01

# Molecular target: SARS-CoV-2 ORF9B
# Test: as above
# Description: as §1
row,Binder,yeast fitness gain
1,B2,inactive: 0.0125
2,B4,inactive: 0.0262
